B1: chr10:87746157:87746259:+|3pUTR|ENSG00000198682|unk|FALSE|unique (ssRNA)
RNA: GGGAGUUCUACAGUCCGACGAUCAACUGAAGACCAAAUCUUAGCAGGUAAAAGCAAUAUUCUUAUACAUUUCAUAAUAAAAUUAGCUCUAUGUAUUUUCUACUGCACCUGAGCAGGCAGGUCCCAGAUUUCUUAAGGCUUUGUCAACAGAGGAUUGAGCAUCA
B2: chr3:25618756:25618858:-|CDS|ENSG00000077097|unk|FALSE|unique (ssRNA)
RNA: GGGAGUUCUACAGUCCGACGAUCUAUAUAAGUUAAAAUACCAGUACAGAUCUAUAUGAUCUGCAAAGUAUAUGUGUUUUGCUUAGGUACUUUUUGAUCAUAUGGGAUGUCUGAAGAAAUAUGAAACUGUGCAAGACAUUCUGACAACAGAGGAUUGAGCAUCA
B3: chr3:48857559:48857660:-|3pUTR|ENSG00000178537|unk|total|mutant (ssRNA)
RNA: GGGAGUUCUACAGUCCGACGAUCGGCUGAAGGCUGCUCAAGUUCACUUCUGGAUGCUGGAAGCUGUCGUUGAGGAGAAGGAGCCGUAAGCAGAACUAAGCAGUCUUGGAGGGCAAGGGGAGGGGAAUGGUGAGAUCCGAGCCCCAACAGAGGAUUGAGCAUCA
B4: chr19:18929200:18929442:-|three_prime_utr|ENSG00000051128|control|control|control (ssRNA)
RNA: GGGAGUUCUACAGUCCGACGAUCCGGGGCUGGUUUUCUAUGAACGAUUCCGGCCUGGGAUGCGGGCCAGGCUGCAGGCGGCAUAGUUGGGCCCAUUCGUCCUGGAAAGGGACUGGGGGGUCCCAACUUAGCCCUGGGUGGGCCCAACAGAGGAUUGAGCAUCA
B5: chr17:42200006:42200107:-|3pUTR|ENSG00000173757|unk|FALSE|unique (ssRNA)
RNA: GGGAGUUCUACAGUCCGACGAUCAAGCUGCCGUUUGCCUUGGCUUGGUUUCAUACACUGAUUUAUUUUUCUAUGCCAGGCAGUAGAGUCUCUCUGCCUCUGAGGAGCAGGCUACCCGCAUCCCACUCAGCCCCUCCCUACCCCCAACAGAGGAUUGAGCAUCA
B6: chr1:201892154:201892255:+|3pUTR|ENSG00000198892|msi1|FALSE|unique (ssRNA)
RNA: GGGAGUUCUACAGUCCGACGAUCUGUUUGUCCCCUCUGGGCUGGGGUGGGGGGAGGGAGGAGGUUCCGUCAGCAGCUGGCAGUAGCCCUCCUCUCUGGCUGCCCCACUGGCCACAUCUCUGGCCUGCUAGAUUAAAGCUGUAACAACAGAGGAUUGAGCAUCA
B7: chr10:89774496:89774597:+|3pUTR|ENSG00000138182|msi1|FALSE|bound_elsewhere (ssRNA)
RNA: GGGAGUUCUACAGUCCGACGAUCAAGAUCUCAAGUCUUUAAUUAGAAUGUCUCACUUAUUUUGUAAACAUUUUGUGGGUACAUAGUACAUGUAUAUAUUUACGGGGUAUGUGAGAUGUUUUGACACAGGCAUGCAAUGUGAAACAACAGAGGAUUGAGCAUCA
B8: chr8:100287602:100287712:-|CDS|ENSG00000034677|unk|total|mutant (ssRNA)
RNA: GGGAGUUCUACAGUCCGACGAUCUGUGUGGAUUGCUUACGACAAUAUUUAAGGACCGAAAUCUCUGAAAGCAGAGUUAAUAUCCGUUGCCCAGAAUGUACUGAACGGUUUAAUCCCCAUGAUAUUCGCUUGAUAUUAAGUGAUCAACAGAGGAUUGAGCAUCA
B9: chr10:131940083:131940120:+|CDS_3pUTR|ENSG00000175470|msi1_unk|total|mutant (ssRNA)
RNA: GGGAGUUCUACAGUCCGACGAUCAUAUAAUGUUUACAGCACCUUUCAAAGUCAUGAACCGGAGUUUGACUAUUUGAAAAGUCCCGAAAUUGAGGAAAAAAUUAAUAAAAUCCGGUGGUUACCACAACAGAAUGCUGCUCAUUUCAACAGAGGAUUGAGCAUCA
B10: chr17:4937608:4937709:-|3pUTR|ENSG00000108528|msi1|FALSE|unique (ssRNA)
RNA: GGGAGUUCUACAGUCCGACGAUCAAGCGUCUCUUCCUCAGUGGCUGAAGCGGCCGGGGGCUCCCACUCGCCUGCUGCGCCUAUAGCCACUGCGCCCUGGGGGCCUGGGCUCUGCUGCCCUGGACCCCUCUAUUUAUUUCCCUUCAACAGAGGAUUGAGCAUCA
B11: ENSG00000107951:stop:overlap|stop_codon|ENSG00000107951|stop_codon|NA|stop_codon (ssRNA)
RNA: GGGAGUUCUACAGUCCGACGAUCUGCCACGUUCAAACAAGCAGCUUUUUGAAUUACUUUGUUAUGCAGAAAGUGUAAGUUUUUAGGUGUACCUCAACUUUUAGAACUAUGUAUUUUUUUAUGAACAAUAAAGAUUCCUGUAAACAACAGAGGAUUGAGCAUCA
B12: chr2:25232207:25232317:-|3pUTR|ENSG00000119772|unk|total|mutant (ssRNA)
RNA: GGGAGUUCUACAGUCCGACGAUCGGUGAGGGCCCGACGGGCAGGUGCUUGCCUGGGCCGAUGGGGUGCCGAUAUGUGGCAUACCGAGAUAUAUAUUUUAUAAUGGGAGGGGGGAUGGCACCUCCUGGGACUGGCCGAGCUGGGCAACAGAGGAUUGAGCAUCA
B13: chr16:8795179:8795951:-|three_prime_utr|ENSG00000184857|control|control|control (ssRNA)
RNA: GGGAGUUCUACAGUCCGACGAUCCCUGGGAACAUGUGUUUUGUGGUGAAUAAAUUCACAAGGCAAGAGCUGGUGUACAGGUUUAGGAAAAAGGCUCUAAGCAAGUUCUUACAGCACUUGUUUGUGACAUUCAGUCAGAUAAUGCAACAGAGGAUUGAGCAUCA
B14: ENSG00000070961:be:win_4601|3pUTR|ENSG00000070961|bound_else_gene|NA|bound_elsewhere_windowed (ssRNA)
RNA: GGGAGUUCUACAGUCCGACGAUCUCAGACUAUCAAACUACAAGAGAACCUUAGUCUUUUUUGUUUUUGUCUAAACAUGUUAGUUUAGUGAUGUCUUGGUGAACUGUGAGUGAACUGUAUUGAUUUUUCUAAUCUUUAGAGACCCAACAGAGGAUUGAGCAUCA
B15: ENSG00000198589:be:win_6901|CDS|ENSG00000198589|bound_else_gene|NA|bound_elsewhere_windowed (ssRNA)
RNA: GGGAGUUCUACAGUCCGACGAUCCUUGCAUGGCUGCUAAGAAUAGAACCCUUUACAACUUAUUUCCUAAAUUUGCAAGGAGGCAAAUUUGAUCAUGCAGAUCGAACUUUUUCAUCAAUUUCCAGAGCUUGGCGAAACAGUCAGCAACAGAGGAUUGAGCAUCA
B16: ENSG00000070961:be:win_4751|3pUTR|ENSG00000070961|bound_else_gene|NA|bound_elsewhere_windowed (ssRNA)
RNA: GGGAGUUCUACAGUCCGACGAUCGAAAAAGGUUAAUAAGUAGAAGCAUACAUGUUUUCCUUUUGUUUUUGAAACUUGUUUGUAAACAUAAAUAAAUAUGCCCUUUUAUUAAAUAAAUUCAUGGCAAUGUUUUUUUAAAAGACACAACAGAGGAUUGAGCAUCA
B17: ENSG00000107863:be:win_301|CDS|ENSG00000107863|bound_else_gene|NA|bound_elsewhere_windowed (ssRNA)
RNA: GGGAGUUCUACAGUCCGACGAUCACCAUAUUUGUUAAGCAAGUUAAAGAAGGAGGACCUGCUUUUGAAGCUGGAUUAUGUACAGGUGACCGAAUUAUAAAAGUCAAUGGAGAAAGUGUUAUUGGCAAAACCUAUUCCCAAGUACAACAGAGGAUUGAGCAUCA
B18: ENSG00000107863:be:win_3451|CDS|ENSG00000107863|bound_else_gene|NA|bound_elsewhere_windowed (ssRNA)
RNA: GGGAGUUCUACAGUCCGACGAUCGACUGCCCACCAGCUCAUACUAAUCGGUAUAUUCCAUUAAUAGUUGACAUAUGUUGCAAAUUAGUUGAAGAAAGAGGUCUUGAAUAUACAGGUAUUUAUAGAGUUCCUGGAAAUAAUGCACAACAGAGGAUUGAGCAUCA
B19: chrX:46853785:46853899:+|CDS|ENSG00000102218|unk|total|mutant (ssRNA)
RNA: GGGAGUUCUACAGUCCGACGAUCCAUCAUUGAGUCUUCCUCAAAUAUCAAAUUUGGAUGUUUUCAAUGGUACUAUCCUGAAUCCGCUUUCCAGUUCAAAGAUGCAGGGCUAAGUAUCUUCAACAAUACAUGGAGUAACAUUCACAACAGAGGAUUGAGCAUCA
B20: chr17:30468017:30468118:+|3pUTR|ENSG00000108582|unk|FALSE|unique (ssRNA)
RNA: GGGAGUUCUACAGUCCGACGAUCGCUAAAAUUUUGGGGAUAUGAUUUGGGUCUUUGAUUAAUGUCAGCUGAACUUGGAUUUCUAGUUCAUGAAGAAAUCUCUCCCAAUACCCAUUUAUCCUAUUUUUAGCAAUAAUUCGUUAACAACAGAGGAUUGAGCAUCA
B21: chr2:110123602:110123703:-|3pUTR|ENSG00000144061|unk|FALSE|unique (ssRNA)
RNA: GGGAGUUCUACAGUCCGACGAUCAUCCUCCACGAUUACGUGAAUAAAAUGAUGGAACCAAAAAUCACUGUCACUUUACAACUUAGGUUUUACUCUUUUCUUUCUACAGACCAUAUUUUUAAAGAAAUGUUUAUACAAUAAUUUCAACAGAGGAUUGAGCAUCA
B22: chr12:48147896:48148005:-|3pUTR|ENSG00000177981|unk|FALSE|unique (ssRNA)
RNA: GGGAGUUCUACAGUCCGACGAUCCUGCUUUAGUGAACGAUACUCUUUCAUUUUUCUAAAUUAGAUCAAGUUGUUAUUGAUUUUAGAUGACUUGUAUGCAAAUUUGAAAAACUUUUUUUUUUAAAGCUGAUUGGGAACUACAAACAACAGAGGAUUGAGCAUCA

The list shows a part of the results.

The experiment addresses MSI1 full-length (mouse, UniProt Q61474 1-362). In words: nsRBNS (natural sequence RNA bind-n-seq); RBNS binding buffer (assumed for nsRBNS): 25 mM Tris pH 7.5, 150 mM KCl, 3 mM MgCl2, 0.01% Triton X-100, 500 ug/ml BSA, 20 U/ml SUPERase-In, 4 C; UNK is unkempt and MSI1 is Musashi-1; names of the RNAs are library labels; protein concentration not given here; high values mean tight binding.
Chain of UniProt Q61474 (Q61474 whole entry): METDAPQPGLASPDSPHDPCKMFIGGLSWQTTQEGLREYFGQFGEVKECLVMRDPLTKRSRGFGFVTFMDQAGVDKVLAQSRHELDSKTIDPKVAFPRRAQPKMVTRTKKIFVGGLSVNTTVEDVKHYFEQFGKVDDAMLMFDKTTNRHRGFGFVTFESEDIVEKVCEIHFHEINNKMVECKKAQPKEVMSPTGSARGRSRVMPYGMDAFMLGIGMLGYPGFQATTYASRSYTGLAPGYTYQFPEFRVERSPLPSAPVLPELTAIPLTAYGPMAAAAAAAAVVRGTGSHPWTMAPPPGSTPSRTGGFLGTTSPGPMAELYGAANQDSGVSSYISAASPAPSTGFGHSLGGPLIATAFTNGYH
Molecule B1 returned a binding signal of 8.56 enrichment R. B2 gave a binding signal of 0.461 enrichment R. For B3, the binding signal is 0.595 enrichment R. For B4, the binding signal is 0.406 enrichment R. For B5 the value was 0.714 enrichment R; for B6, 0.871 enrichment R. In the case of B7, the binding signal was 0.356 enrichment R. Take B8: the binding signal was determined as 0.307 enrichment R.

B9 registered a binding signal of 0.429 enrichment R. With B10, the binding signal worked out at 0.56 enrichment R. Regarding B11, the binding signal came to 0.411 enrichment R.

B12 registered a binding signal of 0.592 enrichment R. For B13, the binding signal amounted to 0.361 enrichment R.

Regarding B14, the binding signal amounted to 3.69 enrichment R. The molecule B15 yielded a binding signal of 0.556 enrichment R.

Take B16: the binding signal came to 0.501 enrichment R.

As for B17, the binding signal was determined as 0.348 enrichment R. For the molecule B18, the binding signal amounted to 4.54 enrichment R. B19 had a binding signal of 0.31 enrichment R. For the molecule B20, the binding signal turned out to be 0.334 enrichment R.

B21 displayed a binding signal of 3.82 enrichment R.

For B22, the binding signal worked out at 1.15 enrichment R.

The record behind these values is publication PMC12136788.
